# Data from the supplement of paper PMC4166925.
# ± gives the standard deviation of the averaged measurements. Over roughly 33,000 sequences, “E-score (dimensionless, -0.5 to 0.5)” has its median near -0.049; the highest 2% begin near 0.37. The list shows a part of the results.
# Tested on: T1, PmTbr T-box DNA-binding domain (GST fusion)
# T1 sequence: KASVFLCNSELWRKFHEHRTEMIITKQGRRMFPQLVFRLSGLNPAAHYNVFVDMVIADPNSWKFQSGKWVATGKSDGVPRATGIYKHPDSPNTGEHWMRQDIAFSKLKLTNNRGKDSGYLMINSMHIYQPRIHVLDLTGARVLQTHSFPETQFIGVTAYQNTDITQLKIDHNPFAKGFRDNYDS
# Test: PBM E-score of 8-mer (E-score (dimensionless, -0.5 to 0.5)); Tbr is Tbrain of the sea star Patiria miniata (Pm) or the sea urchin Strongylocentrotus purpuratus (Sp); higher = stronger binding preference; most listed sequences are background and not binding sites
# Details: the construct has about 5 more residues each side
# Procedure, shortened: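 Each ungapped 8-mer received an enrichment E-score from the Universal PBM Analysis Suite, averaged over duplicate arrays. The proteins were Tbr T-box DNA-binding domains, covering the whole T-box plus about five flanking residues, fused to GST and expressed in BL21 E. coli at 20 °C before glutathione affinity purification. Universal Agilent oligonucleotide arrays were made double-stranded by primer extension and incubated with 200 nM protein in PBS (pH 7.5). The arrays were then scanned and quantified, and every 8-mer was scored from probe intensities.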
row,Sequence,PBM E-score of 8-mer
1,CGGGGTGA,0.277 ± 0.029
2,AGCGAGGC,0.0705 ± 0.012
3,CACGTACA,0.257 ± 0.021
4,AGTCCGCC,-0.179 ± 0.055
5,ATAGTAAG,-0.216 ± 0.029
6,GACTTCGA,0.0669 ± 0.019
7,GCGAGTTA,0.0998 ± 0.0044
8,CAGCTTCG,0.121 ± 0.039
9,GATTTAGA,-0.192 ± 0.055
10,CGCAACCG,0.17 ± 0.036
11,ATGTTGCA,0.0163 ± 0.0015
12,AAAGGTCA,-0.303 ± 0.043
13,GTGCCACA,0.259 ± 0.019
14,AGCGACGA,0.129 ± 0.017
15,TACCATAA,-0.0564 ± 0.0014
16,GGGACGAC,-0.126 ± 0.082
17,TACAATAA,-0.241 ± 0.084
18,GCCCAATA,-0.0859 ± 0.015
19,ATTGTCAC,0.427 ± 0.016
20,AGAGACCG,-0.164 ± 0.0055
21,CCTAACCA,-0.125 ± 0.011
22,TCACCAGA,0.174 ± 0.025
23,GGGTAGCA,0.157 ± 0.032
24,CCCCGCTA,0.124 ± 0.056
25,GGTCGTTA,0.0351 ± 0.049

row,Sequence,PBM E-score of 8-mer
1,CATCCGAA,-0.252 ± 0.026
2,CGGCCGTC,-0.0584 ± 0.014
3,CACTGCCC,0.0159 ± 0.00034
4,AGGCGGCG,0.0344 ± 0.081
5,AAAGCGGA,-0.131 ± 0.1
6,CATGGAGC,-0.297 ± 0.054
7,GCCGTATA,-0.185 ± 0.086
8,CTTGGAGC,-0.21 ± 0.0092
9,GCACCTCC,0.4324 ± 0.002
10,CGTTAAAA,0.0936 ± 0.087
11,ACTATCCC,-0.179 ± 0.054
12,CGGGTAAG,0.00428 ± 0.038
13,GGAACACA,0.108 ± 0.025
14,ACCCCCGG,-0.168 ± 0.024
15,AAGAGCGC,-0.188 ± 0.004
16,AGATGCGC,-0.00169 ± 0.016
17,ACAGTAGC,0.159 ± 0.066
18,GATTGCAA,-0.0176 ± 0.095
19,CGAACTAC,0.00516 ± 0.034
20,ACTATAAC,0.0344 ± 0.058
21,CTGAGAGC,-0.0868 ± 0.0072
22,AGAGGTCC,-0.0718 ± 0.013
23,ACGTAGAC,-0.0628 ± 0.036
24,GCCGACGA,-0.0411 ± 0.054
25,CGATTCGC,0.281 ± 0.0085

row,Sequence,PBM E-score of 8-mer
1,CCAAGAAG,-0.124 ± 0.048
2,CCGCATAA,-0.28809 ± 0.00013
3,CTTTCGTC,0.0821 ± 0.028
4,AAATCTTA,-0.0423 ± 0.077
5,CTGACATA,-0.05981 ± 1.4e-05
6,ACTATTCG,0.103 ± 0.053
7,CGGCACTA,0.00605 ± 0.046
8,ACCGAGCC,-0.175 ± 0.13
9,TACTAGGA,-0.228 ± 0.11
10,CCAATCGG,-0.216 ± 0.075
11,AGGACACT,-0.0839 ± 0.015
12,GACGAGAA,0.12 ± 0.04
13,GGCGCACA,0.0331 ± 0.1
14,AGAAAAGC,-0.161 ± 0.077
15,CGTAAAGC,-0.205 ± 0.0048
16,TAATATCA,-0.0503 ± 0.042
17,CTCATCCA,-0.0453 ± 0.03
18,TTGGGAAA,-0.102 ± 0.057
19,ATCTTACA,-0.0195 ± 0.057
20,CCCGGTAG,0.0416 ± 0.02
21,CGGGTTAC,-0.184 ± 0.048
22,ACTTTGCT,0.0633 ± 0.06
23,GCGGATTA,-0.0286 ± 0.0014
24,TAAGGTAA,-0.114 ± 0.099
25,GCTGCAGC,0.0433 ± 0.051

row,Sequence,PBM E-score of 8-mer
1,ATCATTCA,-0.0769 ± 0.0057
2,AACGGATC,-0.0704 ± 0.012
3,CGATTAGC,-0.0317 ± 0.049
4,CGCTAGAG,0.0404 ± 0.048
5,CTTCAGGC,-0.176 ± 0.04
6,GGAACGAA,-0.118 ± 0.028
7,ACCCCTTA,0.0205 ± 0.031
8,GTGTAAGA,0.235 ± 0.05
9,CTACCGTC,-0.185 ± 0.037
10,CTAGAGAG,-0.118 ± 0.059
11,GAGGTGTA,0.44018 ± 0.00028
12,CAAGGGTG,0.355 ± 0.013
13,GCTTCGAA,-0.0301 ± 0.011
14,CTGCGCGA,0.135 ± 0.033
15,ATATGTGG,0.111 ± 0.081
16,AGACAACT,-0.113 ± 0.013
17,GCCTTTAA,-0.131 ± 0.053
18,AATTCGGC,-0.0658 ± 0.056
19,CGTCATAC,0.107 ± 0.023
20,GAGAGAGA,0.061 ± 0.012
21,AACGGTAT,-0.193 ± 0.054
22,CGCGGATC,-0.062 ± 0.056
23,CGCACAGC,0.0317 ± 0.07
24,AATGGGTA,-0.0565 ± 0.071
25,GCCCCTCC,0.0879 ± 0.011

row,Sequence,PBM E-score of 8-mer
1,AGGACTTA,-0.165 ± 0.04
2,CCTGCATA,-0.114 ± 0.04
3,CCCAGTAC,-0.244 ± 0.011
4,AGTTCCCC,-0.151 ± 0.019
5,AAGTAAGG,-0.0861 ± 0.018
6,TACTCGAA,-0.12 ± 0.0073
7,AAAGCATC,-0.165 ± 0.046
8,ATGGGGAA,0.00532 ± 0.025
9,GTGATCAC,0.276 ± 0.076
10,AATCGACC,0.0168 ± 0.034
11,AAGGGGGC,-0.302 ± 0.033
12,AGTGAAGC,-0.0542 ± 0.015
13,GGTAAACA,-0.05 ± 0.0081
14,AGCTGAAC,-0.107 ± 0.017
15,AAATCTGG,-0.0469 ± 0.029
16,ACTGTGGG,-0.0612 ± 0.032
17,ATATAATG,-0.0513 ± 0.05
18,CGTAGATA,-0.0977 ± 0.032
19,CCGGGCAA,-0.291 ± 0.038
20,AGATTGCA,0.0498 ± 0.025
21,GCGACACA,0.302 ± 0.022
22,ATCGTAGG,0.111 ± 0.039
23,CACCAGTC,0.121 ± 0.02
24,GGGAGACA,0.0535 ± 0.053
25,AATGTGCC,0.23 ± 0.0058

row,Sequence,PBM E-score of 8-mer
1,GCGTTACC,0.24 ± 0.0082
2,CCGCGAGC,-0.00227 ± 0.03
3,GTGTCGCA,0.415 ± 0.0083
4,GAGTAGCC,-0.136 ± 0.014
5,TCCTTTAA,0.0517 ± 0.017
6,CCCGCGTC,-0.232 ± 0.021
7,CGAGTGAC,0.193 ± 0.025
8,GTGGTGGA,0.121 ± 0.01
9,CCCACAGA,-0.105 ± 0.004
10,ATCAGATA,-0.0932 ± 0.0055
11,CGGATAGA,-0.117 ± 0.07
12,ATCTTAGG,-0.139 ± 0.038
13,AACCTCGT,-0.00775 ± 0.063
14,AGACTAGG,-0.0553 ± 0.059
15,GGTACCTA,-0.264 ± 0.074
16,CGATTAGA,-0.0249 ± 0.051
17,ACCCCCCA,-0.17 ± 0.0091
18,CGACTGAA,-0.0953 ± 0.0045
19,CTGTACTC,-0.126 ± 0.069
20,ACAATGGA,-0.126 ± 0.054
21,ACGCTTCC,-0.0398 ± 0.034
22,CGCTCCGA,-0.113 ± 0.1
23,GGTGGCCA,-0.0165 ± 0.13
24,GAAAGATA,-0.231 ± 0.0086
25,CGTACTAA,-0.165 ± 0.15

row,Sequence,PBM E-score of 8-mer
1,AGTGGGCG,0.113 ± 0.0096
2,AATCCGAC,-0.00864 ± 0.035
3,CAAGCGTG,0.191 ± 0.021
4,TCTATACA,-0.07 ± 0.083
5,GACTAAAC,-0.118 ± 0.048
6,CCGTCCCA,-0.0507 ± 0.061
7,ATGCTCGA,-0.2 ± 0.015
8,ATGATAAT,-0.00907 ± 0.08
9,GGCCTGGA,-0.343 ± 0.014
10,CACAAGTC,0.166 ± 0.021
11,CTTCGCAA,0.336 ± 0.028
12,GGGCCATA,-0.114 ± 0.12
13,TATAGCGA,0.0577 ± 0.035
14,ACGGATAC,-0.135 ± 0.0096
15,CTTTGACA,0.24 ± 0.035
16,CACCAGCC,0.07 ± 0.0076
17,ACCGGTAG,0.0183 ± 0.049
18,AAACATGA,0.0362 ± 0.08
19,TCTCTTAA,-0.265 ± 0.069
20,AAAGTGGC,0.234 ± 0.005
21,GATGGGTA,-0.0898 ± 0.014
22,AGTGTCCC,0.176 ± 0.004
